# Reference: PMC9911399, “Two distinct binding modes provide the RNA-binding protein RbFox with extraordinary sequence specificity”
# Numbering of substitutions follows the chain as printed; changes in the protein carry UniProt numbers. Some of the results follow.
# T1: RBFOX1 RRM RbFoxmut (Fox-RRM*) (Homo sapiens, UniProt Q9NWB1 109-208, R118D;E147R;N151S;E152T)
# T1 sequence: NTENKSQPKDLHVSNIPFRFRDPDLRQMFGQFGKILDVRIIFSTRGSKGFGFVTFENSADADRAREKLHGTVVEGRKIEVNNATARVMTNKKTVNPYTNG
# B1: UCCCGAU (DNA:RNA)
# RNA: GGGAGACCGGAAUUCAGAUUGUCCUCCCGAUUUAAAUCCCGUCGUAGCCACCA
# DNA 1: CAATCTGAATTCCGGTCTCCC
# DNA 2: TGGTGGCTACGACGGGATT
# B2: CUGGGAC (DNA:RNA)
# RNA: B1 RNA with U25C, C26U, C27G, C28G, U31C
# DNA 1: CAATCTGAATTCCGGTCTCCC
# DNA 2: TGGTGGCTACGACGGGATT
# B3: AUUGUAG (DNA:RNA)
# RNA: B1 RNA with U25A, C26U, C27U, C28G, G29U, U31G
# DNA 1: CAATCTGAATTCCGGTCTCCC
# DNA 2: TGGTGGCTACGACGGGATT
# B4: GUACCCU (DNA:RNA)
# RNA: B1 RNA with U25G, C26U, C27A, G29C, A30C
# DNA 1: CAATCTGAATTCCGGTCTCCC
# DNA 2: TGGTGGCTACGACGGGATT
# B5: UUCAGCU (DNA:RNA)
# RNA: B1 RNA with C26U, C28A, A30C
# DNA 1: CAATCTGAATTCCGGTCTCCC
# DNA 2: TGGTGGCTACGACGGGATT
# B6: UCUACGC (DNA:RNA)
# RNA: B1 RNA with C27U, C28A, G29C, A30G, U31C
# DNA 1: CAATCTGAATTCCGGTCTCCC
# DNA 2: TGGTGGCTACGACGGGATT
# B7: AAAGAUC (DNA:RNA)
# RNA: GGGAGACCGGAAUUCAGAUUGUCCAAAGAUCUUAAAUCCCGUCGUAGCCACCA
# DNA 1: CAATCTGAATTCCGGTCTCCC
# DNA 2: TGGTGGCTACGACGGGATT
# B8: GUGCGCG (DNA:RNA)
# RNA: B1 RNA with U25G, C26U, C27G, A30C, U31G
# DNA 1: CAATCTGAATTCCGGTCTCCC
# DNA 2: TGGTGGCTACGACGGGATT
# B9: GACAAAG (DNA:RNA)
# RNA: B7 RNA with A25G, A27C, G28A, U30A, C31G
# DNA 1: CAATCTGAATTCCGGTCTCCC
# DNA 2: TGGTGGCTACGACGGGATT
# B10: CGACAUA (DNA:RNA)
# RNA: B7 RNA with A25C, A26G, G28C, C31A
# DNA 1: CAATCTGAATTCCGGTCTCCC
# DNA 2: TGGTGGCTACGACGGGATT
# B11: AAGGCCG (DNA:RNA)
# RNA: B7 RNA with A27G, A29C, U30C, C31G
# DNA 1: CAATCTGAATTCCGGTCTCCC
# DNA 2: TGGTGGCTACGACGGGATT
# B12: GGGAGUG (DNA:RNA)
# RNA: B7 RNA with A25G, A26G, A27G, G28A, A29G, C31G
# DNA 1: CAATCTGAATTCCGGTCTCCC
# DNA 2: TGGTGGCTACGACGGGATT
# B13: UCAAUCA (DNA:RNA)
# RNA: B1 RNA with C27A, C28A, G29U, A30C, U31A
# DNA 1: CAATCTGAATTCCGGTCTCCC
# DNA 2: TGGTGGCTACGACGGGATT
# B14: CUGGUGG (DNA:RNA)
# RNA: B7 RNA with A25C, A26U, A27G, A29U, U30G, C31G
# DNA 1: CAATCTGAATTCCGGTCTCCC
# DNA 2: TGGTGGCTACGACGGGATT
# B15: CCAAUCA (DNA:RNA)
# RNA: B7 RNA with A25C, A26C, G28A, A29U, U30C, C31A
# DNA 1: CAATCTGAATTCCGGTCTCCC
# DNA 2: TGGTGGCTACGACGGGATT
# B16: AGUCCCU (DNA:RNA)
# RNA: B1 RNA with U25A, C26G, C27U, G29C, A30C
# DNA 1: CAATCTGAATTCCGGTCTCCC
# DNA 2: TGGTGGCTACGACGGGATT
# B17: GGCCGUA (DNA:RNA)
# RNA: B1 RNA with U25G, C26G, A30U, U31A
# DNA 1: CAATCTGAATTCCGGTCTCCC
# DNA 2: TGGTGGCTACGACGGGATT
# B18: AGCAAGC (DNA:RNA)
# RNA: B7 RNA with A26G, A27C, G28A, U30G
# DNA 1: CAATCTGAATTCCGGTCTCCC
# DNA 2: TGGTGGCTACGACGGGATT
# B19: UUUCGUA (DNA:RNA)
# RNA: B1 RNA with C26U, C27U, A30U, U31A
# DNA 1: CAATCTGAATTCCGGTCTCCC
# DNA 2: TGGTGGCTACGACGGGATT
# B20: AUAGCCU (DNA:RNA)
# RNA: B7 RNA with A26U, A29C, U30C, C31U
# DNA 1: CAATCTGAATTCCGGTCTCCC
# DNA 2: TGGTGGCTACGACGGGATT
# B21: CAACUAG (DNA:RNA)
# RNA: B7 RNA with A25C, G28C, A29U, U30A, C31G
# DNA 1: CAATCTGAATTCCGGTCTCCC
# DNA 2: TGGTGGCTACGACGGGATT
# B22: GCUCUCA (DNA:RNA)
# RNA: B1 RNA with U25G, C27U, G29U, A30C, U31A
# DNA 1: CAATCTGAATTCCGGTCTCCC
# DNA 2: TGGTGGCTACGACGGGATT
# B23: CAUGGCC (DNA:RNA)
# RNA: B7 RNA with A25C, A27U, A29G, U30C
# DNA 1: CAATCTGAATTCCGGTCTCCC
# DNA 2: TGGTGGCTACGACGGGATT
# B24: CCUUUCA (DNA:RNA)
# RNA: B1 RNA with U25C, C27U, C28U, G29U, A30C, U31A
# DNA 1: CAATCTGAATTCCGGTCTCCC
# DNA 2: TGGTGGCTACGACGGGATT
# B25: CGCUGUA (DNA:RNA)
# RNA: B1 RNA with U25C, C26G, C28U, A30U, U31A
# DNA 1: CAATCTGAATTCCGGTCTCCC
# DNA 2: TGGTGGCTACGACGGGATT
# B26: GCAUCGA (DNA:RNA)
# RNA: B7 RNA with A25G, A26C, G28U, A29C, U30G, C31A
# DNA 1: CAATCTGAATTCCGGTCTCCC
# DNA 2: TGGTGGCTACGACGGGATT
# B27: AGAUUUU (DNA:RNA)
# RNA: B7 RNA with A26G, G28U, A29U, C31U
# DNA 1: CAATCTGAATTCCGGTCTCCC
# DNA 2: TGGTGGCTACGACGGGATT
# B28: UUGGGAA (DNA:RNA)
# RNA: B1 RNA with C26U, C27G, C28G, U31A
# DNA 1: CAATCTGAATTCCGGTCTCCC
# DNA 2: TGGTGGCTACGACGGGATT
# B29: GGAGAUU (DNA:RNA)
# RNA: B7 RNA with A25G, A26G, C31U
# DNA 1: CAATCTGAATTCCGGTCTCCC
# DNA 2: TGGTGGCTACGACGGGATT
# B30: ACUAAGA (DNA:RNA)
# RNA: B7 RNA with A26C, A27U, G28A, U30G, C31A
# DNA 1: CAATCTGAATTCCGGTCTCCC
# DNA 2: TGGTGGCTACGACGGGATT
# B31: CUCGGAU (DNA:RNA)
# RNA: B1 RNA with U25C, C26U, C28G
# DNA 1: CAATCTGAATTCCGGTCTCCC
# DNA 2: TGGTGGCTACGACGGGATT
# Target: T1, RBFOX1 RRM RbFoxmut (Fox-RRM*)
# Experiment: EMSA; HiTS-Eq, 1 nM pool, 10 min; buffer printed only for the single-RNA assays: 10 mM Tris pH 7.5, 150 mM NaCl, 3.4 mM EDTA, 0.001% NP-40, 30 C
# Settings: tags: His6 N-terminal (pET28a); label: 5' 32P
# How it was run: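 Purified wild-type or mutant RbFox RRM at increasing concentrations was equilibrated with 1 nM of 5′-radiolabelled RNA carrying 7 randomized nucleotides for 10 min in 50 µL. Unbound RNA was separated by 8% native PAGE and sequenced. Relative association constants came from read-count changes of each RNA species compared with the control reaction, normalised to the cognate motif.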
row,Binder,binding signal
1,B1,0.0601 KA relative to UGCAUGU
2,B2,0.0652 KA relative to UGCAUGU
3,B3,0.23 KA relative to UGCAUGU
4,B4,0.0581 KA relative to UGCAUGU
5,B5,0.104 KA relative to UGCAUGU
6,B6,0.102 KA relative to UGCAUGU
7,B7,0.0686 KA relative to UGCAUGU
8,B8,0.194 KA relative to UGCAUGU
9,B9,0.0552 KA relative to UGCAUGU
10,B10,0.0671 KA relative to UGCAUGU
11,B11,0.106 KA relative to UGCAUGU
12,B12,0.269 KA relative to UGCAUGU
13,B13,0.0679 KA relative to UGCAUGU
14,B14,0.0794 KA relative to UGCAUGU
15,B15,0.0737 KA relative to UGCAUGU
16,B16,0.0659 KA relative to UGCAUGU

row,Binder,binding signal
1,B17,0.106 KA relative to UGCAUGU
2,B18,0.0622 KA relative to UGCAUGU
3,B19,0.142 KA relative to UGCAUGU
4,B20,0.0845 KA relative to UGCAUGU
5,B21,0.0893 KA relative to UGCAUGU
6,B22,0.098 KA relative to UGCAUGU
7,B23,0.335 KA relative to UGCAUGU
8,B24,0.0783 KA relative to UGCAUGU
9,B25,0.206 KA relative to UGCAUGU
10,B26,0.675 KA relative to UGCAUGU
11,B27,0.0916 KA relative to UGCAUGU
12,B28,0.14 KA relative to UGCAUGU
13,B29,0.0811 KA relative to UGCAUGU
14,B30,0.13 KA relative to UGCAUGU
15,B31,0.0754 KA relative to UGCAUGU
